Reference: publication PMC3667135
These are yes or no findings as the source states them, for the method shown. For part of these data: In cells and extracts the contact can be indirect. Some entries that bind do so weakly or less than the wild type. Where a sequence is shown, tags or fusion partners need not be part of it.

T1: Env-LP-GST wt (PFV Env aa 1–60 with C-terminal linker and GST, mammalian expression) (prototype foamy virus (PFV)) (UniProt P14351)
T1 sequence: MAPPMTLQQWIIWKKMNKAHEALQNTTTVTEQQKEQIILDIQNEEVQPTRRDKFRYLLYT

T2: Recombinant PFV Env-LP-GST wt (PFV Env aa 1–60, C-terminal linker, GST and deca-His tag, E. coli) (prototype foamy virus (PFV)) (UniProt P14351)
T2 sequence: T1 sequence

B1: Recombinant PFV Gag 1–310 with C-terminal MBP and His tag (E. coli) (domain or fragment, UniProt P14349 1-310)
chain: MASGSNVEEYELDVEALVVILRDRNIPRNPLHGEVIGLRLTEGWWGQIERFQMVRLILQDDDNEPLQRPRYEVIQRAVNPHTMFMISGPLAELQLAFQDLDLPEGPLRFGPLANGHYVQGDPYSSSYRPVTMAETAQMTRDELEDVLNTQSEIEIQMINLLELYEVETRALRRQLAERSSTGQGGISPGAPRSRPPVSSFSGLPSLPSIPGIHPRAPSPPRATSTPGNIPWSLGDDSPPSSSFPGPSQPRVSFHPGNPFVEEEGHRPRSQSRERRREILPAPVPSAPPMIQYIPVPPPPPIGTVIPIQHI
B2: PFV Gag 1–310 CLEGHH (domain or fragment, UniProt P14349 1-310)
chain: B1 chain

Assays:
[1] = target: T1, Env-LP-GST wt (PFV Env aa 1–60 with C-terminal linker and GST, mammalian expression) (prototype foamy virus (PFV)); assay: pull-down; GST-tagged Env bait (or control) and Gag prey from separately transfected 293T cultures; 450 ul of each precleared lysate mixed with glutathione-sepharose beads, 2 h at 4°C; lysis buffer 50 mM Tris/HCl pH 7.4, 500 mM NaCl, 5 mM EDTA, 1 mM DTT, 5% glycerol, 1% Triton; washes with 150 mM NaCl, 0.1% Triton; Western blot (anti-HA or anti-Gag, anti-GST)
[2] = target: T2, Recombinant PFV Env-LP-GST wt (PFV Env aa 1–60, C-terminal linker, GST and deca-His tag, E. coli) (prototype foamy virus (PFV)); assay: pull-down; both partners affinity purified from E. coli: bait (5 ug) and prey (200 ug) in 900 ul cold pull-down-assay buffer with glutathione-sepharose beads, 2 h at 4°C; Western blot (anti-Gag, anti-GST); both purified
[3] = target: T1, Env-LP-GST wt (PFV Env aa 1–60 with C-terminal linker and GST, mammalian expression) (prototype foamy virus (PFV)); assay: pull-down; GST-tagged Env bait in 293T lysate (euk.), Gag-MBP-His prey affinity purified from E. coli (prok.); glutathione-sepharose beads, 2 h at 4°C; Western blot (anti-Gag, anti-GST); only the binder purified
[4] = target: T1, Env-LP-GST wt (PFV Env aa 1–60 with C-terminal linker and GST, mammalian expression) (prototype foamy virus (PFV)); assay: pull-down; GST-tagged Env bait (or control) and Gag prey from separately transfected 293T cultures; 450 ul of each precleared lysate mixed with glutathione-sepharose beads, 2 h at 4°C; lysis buffer 50 mM Tris/HCl pH 7.4, 500 mM NaCl, 5 mM EDTA, 1 mM DTT, 5% glycerol, 1% Triton; washes with 150 mM NaCl, 0.1% Triton; Western blot (anti-HA or anti-Gag, anti-GST); remark: listed apart in the source
[5] = target: T2, Recombinant PFV Env-LP-GST wt (PFV Env aa 1–60, C-terminal linker, GST and deca-His tag, E. coli) (prototype foamy virus (PFV)); assay: pull-down; GST-tagged Env bait affinity purified from E. coli (prok.), Gag 1–310 CLEGHH prey in 293T lysate (euk.); glutathione-sepharose beads, 2 h at 4°C; Western blot (anti-Gag, anti-GST); only the target purified

Molecule	binding [1]	also measured
PFV Gag 11–450 CLEGHH (from UniProt P14349 11-450) (domain or fragment)	binds	
PFV Gag 16–450 CLEGHH (from UniProt P14349 16-450) (domain or fragment)	no binding	
PFV Gag 1–450 CLEGHH (from UniProt P14349 1-450) (domain or fragment)	binds	
PFV Gag 1–180 CLEGHH (from UniProt P14349 1-180) (domain or fragment)	binds	
PFV Gag 1–155 CLEGHH (from UniProt P14349 1-155) (domain or fragment)	no binding	
PFV Gag 1–350 CLEGHH (from UniProt P14349 1-350) (domain or fragment)	binds	
PFV Gag 1–295 CLEGHH (from UniProt P14349 1-295) (domain or fragment)	binds	
PFV Gag 31–450 CLEGHH (from UniProt P14349 31-450) (domain or fragment)	no binding	
PFV Gag 1–129 CLEGHH (from UniProt P14349 1-129) (domain or fragment)	no binding	
PFV Gag 21–450 CLEGHH (from UniProt P14349 21-450) (domain or fragment)	no binding	
PFV Gag 6–450 CLEGHH (from UniProt P14349 6-450) (domain or fragment)	binds	
PFV Gag 41–450 CLEGHH (from UniProt P14349 41-450) (domain or fragment)	no binding	
PFV Gag 130–295 CLEGHH (from UniProt P14349 130-295) (domain or fragment)	no binding	
Recombinant PFV Gag 41–310 with C-terminal MBP and His tag (E. coli) (from UniProt P14349 41-310) (domain or fragment)		binding [2]: no binding (tested: bait 5 ug, prey 200 ug in 900 ul); binding [3]: no binding
B1		binding [3]: binds
B2		binding [4]: binds; binding [5]: binds
